Experimental findings from publication PMC4336329 (PLoS ONE, 2015) are described below.

Among all 310,000 compounds or so, about 2,200 (0.71%) showed an effect of 50% or more. Effects have a minus sign here. Some of the results follow.

The target in this assay is human ether-à-go-go-related gene (hERG) potassium channel (human, UniProt Q12809). Put plainly: primary screen, population patch clamp on CHO cells stably expressing hERG.
Chain of human ether-à-go-go-related gene (hERG) potassium channel (Q12809 whole entry, looked up): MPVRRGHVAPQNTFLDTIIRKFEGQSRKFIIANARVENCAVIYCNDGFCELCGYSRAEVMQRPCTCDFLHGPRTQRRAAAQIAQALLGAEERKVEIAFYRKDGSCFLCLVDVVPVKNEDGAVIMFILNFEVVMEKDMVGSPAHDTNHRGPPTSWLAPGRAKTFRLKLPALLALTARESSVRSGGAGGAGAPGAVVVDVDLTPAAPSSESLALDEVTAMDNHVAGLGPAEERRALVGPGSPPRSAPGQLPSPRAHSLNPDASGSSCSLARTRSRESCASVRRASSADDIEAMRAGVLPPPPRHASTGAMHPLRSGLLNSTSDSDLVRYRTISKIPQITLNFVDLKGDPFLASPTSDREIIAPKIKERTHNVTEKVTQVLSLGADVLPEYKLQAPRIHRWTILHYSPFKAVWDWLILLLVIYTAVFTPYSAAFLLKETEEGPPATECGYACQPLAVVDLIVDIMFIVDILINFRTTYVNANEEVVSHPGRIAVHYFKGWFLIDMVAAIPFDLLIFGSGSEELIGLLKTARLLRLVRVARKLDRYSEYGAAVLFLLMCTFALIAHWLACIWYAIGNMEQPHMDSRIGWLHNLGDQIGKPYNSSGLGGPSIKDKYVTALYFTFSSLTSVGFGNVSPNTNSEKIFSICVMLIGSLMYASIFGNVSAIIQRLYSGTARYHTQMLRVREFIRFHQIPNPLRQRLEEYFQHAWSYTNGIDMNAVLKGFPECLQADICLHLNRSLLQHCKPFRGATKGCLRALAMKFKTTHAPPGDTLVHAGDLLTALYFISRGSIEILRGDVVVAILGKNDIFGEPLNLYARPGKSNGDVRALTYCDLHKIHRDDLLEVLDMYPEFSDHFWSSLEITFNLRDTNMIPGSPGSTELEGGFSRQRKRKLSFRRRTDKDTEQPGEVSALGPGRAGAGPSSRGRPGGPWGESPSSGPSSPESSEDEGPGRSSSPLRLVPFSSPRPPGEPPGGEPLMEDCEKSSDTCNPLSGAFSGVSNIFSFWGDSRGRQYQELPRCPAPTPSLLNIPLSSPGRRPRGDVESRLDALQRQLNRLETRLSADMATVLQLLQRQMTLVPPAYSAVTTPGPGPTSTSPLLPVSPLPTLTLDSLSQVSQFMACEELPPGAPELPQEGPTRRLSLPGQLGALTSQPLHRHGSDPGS
`COc1ccc(C2CC(c3ccc(OC)cc3)n3nc(NC(=O)c4ccco4)nc3N2)cc1` (stereo not drawn): the “hERG current change (%, negative = inhibition) at 1uM” value is 7.19%.

As to `COc1ccc2nc(NC(=O)C3CCN(S(=O)(=O)c4cnc[nH]4)CC3)sc2c1`, the “hERG current change (%, negative = inhibition) at 1uM” value is reported as 17.6%.

On to `O=C(O)Cn1nc(C(F)(F)F)c2c1CCCC2`, for which the “hERG current change (%, negative = inhibition) at 1uM” value is reported as 9.81%.

Take `CC1CCCN(c2nc3ccsc3c(=O)s2)C1` (stereo not drawn): the “hERG current change (%, negative = inhibition) at 1uM” value is 0.344%.

As for `C/C(=N\NC(=O)c1ccc(O)cc1)c1ccc(NC(=O)Cc2ccccc2)cc1`, the “hERG current change (%, negative = inhibition) at 1uM” value is listed as 14.4%.

As to `COc1ccc(/C=C2/SC(=O)N(CC(O)Cn3c4ccccc4c4ccccc43)C2=O)cc1` (stereo not drawn), the “hERG current change (%, negative = inhibition) at 1uM” value turned out to be 5.89%.

`O=C(CN1CCN(S(=O)(=O)c2ccccc2[N+](=O)[O-])CC1)Nc1ccc(N2CCOCC2)cc1`: the “hERG current change (%, negative = inhibition) at 1uM” value is recorded as -2.53%.

In the case of `CCN1C(=O)/C(=C2/C=CC=CN2C)SC1=S`, the “hERG current change (%, negative = inhibition) at 1uM” value is given as -1.29%.

As to `COc1cccc(CN2CCCC(C(=O)c3ccc4c(c3)OCO4)C2)c1O` (stereo not drawn), the “hERG current change (%, negative = inhibition) at 1uM” value is recorded as -44.6%.

As to `Cc1cc(OCc2cc(C(=O)NC3CCC3)no2)cc(C)c1Cl`, the “hERG current change (%, negative = inhibition) at 1uM” value came out at 6.38%.

Regarding `COc1cc(C(=O)COC(=O)CNC(=O)C2CCCCC2)cc(OC)c1OC`, the “hERG current change (%, negative = inhibition) at 1uM” value was determined as 4.44%.

Regarding `COc1ccc(-n2nc3c(c2NC(=O)CCCl)CSC3)cc1`, the “hERG current change (%, negative = inhibition) at 1uM” value came out at 16%.

As for `CCOC(=O)N1CCN(S(=O)(=O)CCNC(=O)c2ccc(F)cc2)CC1`, the “hERG current change (%, negative = inhibition) at 1uM” value was -1.09%.

Consider `O=C(Nc1ccn(-c2ccccc2)n1)c1ccccc1Br`, for which the “hERG current change (%, negative = inhibition) at 1uM” value is reported as -0.915%.

For `Cc1cc(NC(=O)c2ccc(Cl)c(S(=O)(=O)N3CCOCC3)c2)no1`, the “hERG current change (%, negative = inhibition) at 1uM” value was determined as 9.21%.

In the case of `COc1ccc(CC(=O)N2CCN(S(=O)(=O)c3ccc(Cl)s3)CC2)cc1`, the “hERG current change (%, negative = inhibition) at 1uM” value is -6.95%.

As to `Cc1nn(-c2ccccc2)c(/N=C/c2ccccc2O)c1-c1ccccc1`, the “hERG current change (%, negative = inhibition) at 1uM” value came to 2.16%.

With `CN(C(=O)CSc1nnc(-c2c[nH]c3ccccc23)n1C1CC1)C1CCS(=O)(=O)C1` (stereo not drawn), the “hERG current change (%, negative = inhibition) at 1uM” value is listed as -3.54%.

For the compound `CC1CCC/C(=C\Nc2ccc3c(c2)OCO3)C1=O` (stereo not drawn), the “hERG current change (%, negative = inhibition) at 1uM” value is -8.61%.

With `O=C(NCCCn1ccnc1)c1cc(-c2ccc3c(c2)OCO3)on1`, the “hERG current change (%, negative = inhibition) at 1uM” value is listed as -1.89%.

Turning to `CNC(=O)COC(=O)c1ccc2c(c1)NC(=O)C1CCCN21` (stereo not drawn), the “hERG current change (%, negative = inhibition) at 1uM” value was found to be 16.7%.

With `CC(=O)c1ccc(S(=O)(=O)N2CCN(CC(=O)Nc3ccccc3C(=O)NC3CC3)CC2)cc1`, the “hERG current change (%, negative = inhibition) at 1uM” value was -43.4%.

Take `O=C(NC1=NCCS1)c1nc(-c2ccccc2)n(-c2ccccc2)n1`: the “hERG current change (%, negative = inhibition) at 1uM” value is on record as 11.5%.

For `CCCN(CCC)CC(=O)N1CC(=O)Nc2ccccc21`, the “hERG current change (%, negative = inhibition) at 1uM” value is recorded as 6.68%.
